Among all 45,000 compounds or so, about 65 (0.1%) were called active. Calls come from the whole dose curve; as a rule, active = well fitted activation curve with a large enough effect; inconclusive = small, poorly fitted or top-dose-only effect; inactive = no such curve, though single readings can be large or run the other way. The list shows a part of the results.
target: Galactocerebrosidase (Homo sapiens) (UniProt P54803); assay: A Novel Cell-Based Assay to Identify Small Molecules for B -Galactocerebrosidase; settings: 145M-Twi-hGALC-G270D cells (Twitcher mouse brain line with human GALC G270D), HMU-beta-Gal fluorescence, 48 h; series mostly up to 57.5 µM; activation: at the top concentration; note: 0% is about no effect; nearly all actives have a fitted effect of over 65% in size
Outline: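 Fluorogenic HMU-b-Gal hydrolysis (0.1 mM final, pH 5.2 citrate-phosphate with 1 mg/mL sodium taurocholate; carbonate stop buffer) measures mutant GALC activity after compound treatment of live 145M-Twi Twitcher brain cells stably carrying human GALC-G270D, with wild-type GALC line alongside; activation sought.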

Chain of UniProt P54803 (P54803 whole entry, looked up): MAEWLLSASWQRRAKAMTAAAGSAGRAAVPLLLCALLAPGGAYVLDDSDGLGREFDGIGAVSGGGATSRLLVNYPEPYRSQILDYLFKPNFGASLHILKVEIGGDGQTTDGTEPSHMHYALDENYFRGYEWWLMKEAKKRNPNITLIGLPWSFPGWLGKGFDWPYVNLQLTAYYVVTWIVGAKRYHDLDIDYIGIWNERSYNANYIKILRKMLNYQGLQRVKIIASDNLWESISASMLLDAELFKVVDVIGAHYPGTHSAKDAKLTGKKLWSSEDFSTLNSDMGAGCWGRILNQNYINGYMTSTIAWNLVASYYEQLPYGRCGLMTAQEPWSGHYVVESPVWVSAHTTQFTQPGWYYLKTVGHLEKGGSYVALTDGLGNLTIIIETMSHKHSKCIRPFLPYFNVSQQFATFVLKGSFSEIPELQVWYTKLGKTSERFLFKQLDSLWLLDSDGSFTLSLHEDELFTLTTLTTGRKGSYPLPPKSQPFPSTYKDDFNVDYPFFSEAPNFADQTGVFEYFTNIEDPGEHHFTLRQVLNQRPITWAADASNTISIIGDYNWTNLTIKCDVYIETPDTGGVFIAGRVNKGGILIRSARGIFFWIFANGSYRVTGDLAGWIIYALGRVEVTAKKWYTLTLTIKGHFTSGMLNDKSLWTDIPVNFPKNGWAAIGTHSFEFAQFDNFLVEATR

activation, inactive:
COc1cccc(-n2c(-c3ccco3)nc3c(cnn3-c3ccc(C)cc3)c2=O)c1 -4.72%
O=C(Nc1cc(Cl)ccc1Cl)C1(c2cccs2)CCOCC1 -8.05%
Cc1noc(Cn2c(=O)c3ccccc3n(CC(=O)Nc3ccc(Cl)cc3)c2=O)n1 -17.6%
CCOc1ccc(NC(=O)CSc2ncc3c(n2)-c2cc(Cl)ccc2N(C)S3(=O)=O)cc1 0.186%
Cc1ccc2cccc(NC(=O)C(C)Oc3ccc(C)c(C)c3)c2n1 (stereo unspecified) -10.6%
Cc1ccc(Nc2c(F)cccc2Cl)c(CC(=O)O)c1 -7.97%
CC1=C(C(=O)NCc2ccc(C)cc2)C2(CCCCC2)OC1=O -17.3%
COc1ccc(N2CCN(C(=O)c3ccc(Nc4nc5ccccc5n5nnnc45)cc3)CC2)cc1 -3.79%
COc1ccc(NC(=O)CCNS(=O)(=O)c2cccc3nonc23)c(OC)c1 -7.17%
CC(=O)N1CCCc2cc(S(=O)(=O)N3CCCC(C(=O)Nc4cccc(F)c4)C3)ccc21 (stereo unspecified) -19.3%
O=c1c2cc3c(cc2n(Cc2cccc(Cl)c2)c(=O)n1Cc1nc(-c2ccccc2)no1)OCO3 -2.45%
COc1ccc(Nc2ncc(C(=O)Nc3cc(Cl)c(OC)cc3OC)c3ccccc23)cc1 11.7%
CN(C)c1ccc(C(CNS(=O)(=O)c2ccc(F)cc2)N2CCCC2)cc1 (stereo unspecified) -13.9%
O=C(CCS(=O)(=O)c1nc(-c2ccc3c(c2)OCO3)cc(C(F)(F)F)n1)Nc1ccc(F)c(Cl)c1 -24.4%
O=C(Nc1ncc(Cc2ccc(Cl)cc2)s1)c1ccc2c(c1)CC(c1ccccc1)OC2=O (stereo unspecified) -6.24%
COc1cccc(C2CC(=O)Nc3c2c(=O)nc2c(C)cccn32)c1 (stereo unspecified) -10.9%
COc1cccc(CNC(=O)CSc2nc3ccccc3nc2Cc2ccc(C)cc2)c1OC 1.2%
Cc1ccc(NC(=O)CCNS(=O)(=O)c2ccc3c(c2)CCN3C(=O)C2CC2)c(Cl)c1 -36.1%
CCCn1c2ccccc2c2cnn(CC(=O)NCCc3ccc(OCC)c(OCC)c3)c(=O)c21 -11.5%
CCCCNC(=O)CCn1c(=O)c2cccn2c2ccc(F)cc21 -4.56%
CCOc1ccccc1NC(=O)CSc1ncc(S(=O)(=O)c2ccc(C(C)(C)C)cc2)c(=O)[nH]1 -15.2%
CCCCN(Cc1ccco1)C(=O)c1cc2c(s1)-c1c(C)cccc1OC2 -5.44%
Cc1cccc(NC(=O)c2oc3ccc(S(=O)(=O)N(C)C4CCCCC4)cc3c2C)c1C -2.46%
CCOC(=O)c1ccccc1NC(=O)c1nn(-c2ccc(C)cc2)c(=O)n(C)c1=O -8.44%
CCc1ccc(S(=O)(=O)N2CCN(c3ccc(Cl)c(Cl)c3)CC2)cc1 2.43%
CCc1ccccc1NC(=O)Cn1nnc(C(=O)Nc2ccc(OC)c(OC)c2)c1N -6.98%
Cc1ccccc1NC(=O)c1ccc(F)c(S(=O)(=O)N2CCc3ccccc3C2)c1 -9.77%
COC(=O)Cn1ccc2cc(S(=O)(=O)N3CCCCC3)ccc21 -14.6%
Cc1cc(C)c(S(=O)(=O)N2CCC(N3CCN(Cc4ccc(F)cc4)C(=O)C3=O)CC2)c(C)c1 -23.2%
CC(C)c1ccc(NC(=O)c2cnn3c(C(F)F)cc(-c4ccccc4)nc23)cc1 -10.6%
Cc1ccc(C(C)C)c(OCCCn2c(=O)oc3ccc(C)cc32)c1 -5.96%
COc1c(Cl)cc(Cl)cc1/C=C(\C#N)c1nc(-c2ccc(Cl)cc2)cs1 20.8%
CCOCCCNC(=O)Cn1cc2c(n1)-c1c(oc(C(=O)N3CCCC3)c1C)CC2 -3.23%
CCc1ccccc1NC(=O)c1cnn(-c2ccc(F)cc2)c1C1CCNCC1 -12.6%
COc1ccc(-c2cc(-c3ccc4c(c3)NC(=O)CO4)nc3c2COc2ccc(C)cc2-3)cc1 -15%
COc1ccc(-n2ncc(C(=O)NCCCN3CCCCC3)c2C2CCN(C(=O)OC(C)(C)C)CC2)cc1 -6.28%
Cc1c(NC(=O)C(F)(F)F)ccc2nc3c(=O)n(C)c(=O)n(C)c3nc12 -0.948%
COc1cccc(NC(=O)Cn2c(=O)n(CCCCC(=O)NCc3ccc4c(c3)OCO4)c(=O)c3ccccc32)c1 -9.86%
Cc1ccc(C)c(N2CCN(C(=O)C3CCC(CNS(=O)(=O)c4ccc(Br)s4)CC3)CC2)c1 (stereo unspecified) -14.3%
O=C(O)COc1ccccc1C1Nc2ccccc2-c2nnc(SCc3ccc(Cl)cc3)nc2O1 (stereo unspecified) -3.6%
CCOc1ccc(-c2cc(CCCC(=O)NCCc3ccc(OC)c(OC)c3)no2)cc1 -29.8%
CC(C)(C)C(=O)Nc1ccc2nc(SCCOc3ccccc3Cl)sc2c1 -40%
Oc1cccc(Nc2cc(-c3ccccc3)ncn2)c1 -9.56%
CCCS(=O)(=O)N1CC(=O)N(c2cc(C)cc(C)c2)C(C)(C(=O)NC2CCCCCC2)C1 (stereo unspecified) -14.8%
N#Cc1ccc(NC(=O)c2ccc3c(c2)nnn3C2CCCC2)cc1 0.494%
COc1ccc(Nc2oc(-c3ccc(COc4ccccc4)o3)nc2C#N)cc1 -11.4%
CCOC(=O)N1CCC(NC(=O)c2cnn(-c3ccc(C)cc3)c2C2CCN(C(=O)OC(C)(C)C)CC2)CC1 -7.77%
COc1ccc(-n2c(SCc3nc(-c4ccc(Cl)cc4)no3)nnc2-c2ccncc2)cc1 -20.9%
CCC(Sc1ncnc2sc3c(c12)CCCC3)C(=O)OCC(C)C (stereo unspecified) -11.7%
CCOc1ccccc1C(=O)Nc1cc(-c2nc3cccnc3s2)ccc1C -25.5%
Cc1ccc(CSc2nc3cc(C(=O)NC4CCCC4)ccc3c(=O)n2Cc2ccccc2)cc1 -18.6%
CCc1ccc(NS(=O)(=O)c2ccc(NC(=O)N3CCCC3)cc2)cc1 -21%
Cc1ccc(C)c(CSc2cn(CCNC(=O)c3cccs3)c3ccccc23)c1 -6.66%
CCc1ccc(NC(=O)Cn2nnc(C(=O)Nc3ccc(F)cc3)c2N)cc1 -4.58%
O=C(Nc1cccc(O)c1)c1cc(-c2ccccc2F)no1 -12.5%
CC(CNC(=O)c1csc2c1CCCCC2)c1ccccc1 (stereo unspecified) -20.9%
Cc1cccc(NC(=O)CN2C(=O)CC(c3ccccc3)Sc3ccccc32)c1 (stereo unspecified) -19.4%
Cc1ccccc1NC(=O)Cn1nnc(C(=O)NCc2cccs2)c1N -9.97%
Cc1ccc(NC(=O)CCc2c(C)nc3ncnn3c2C)cc1Cl -16.3%
CCOC(=O)C1CCCN(C(=O)Cn2ncc3c4ccccc4n(C)c3c2=O)C1 (stereo unspecified) 1.04%
COc1cc(NC(=O)c2cc(S(=O)(=O)N3CCC(C)CC3)cn2C)cc(OC)c1OC -12.9%

— PubChem BioAssay AID1159614 (National Center for Advancing Translational Sciences (NCATS), 2016)
